The whole screen tested about 110,000 compounds, of which about 230 (0.21%) showed an effect of 50% or more. The list shows a part of the results.

From PMC6919601, “Identification of Plasmodium dipeptidyl aminopeptidase allosteric inhibitors by high throughput screening” (PLoS ONE, 2019) come the findings set out here.
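Further: 30 min substrate incubation versus DMSO and 10 µM JCP410 controls.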

The target in this test is DPAP1 (Plasmodium falciparum, UniProt Q8IIJ9). Kind of test: primary screen, percent inhibition; read by cleavage of a fluorogenic dipeptide substrate; higher = more effect of the substance. Set-up: species or system P. falciparum D10 trophozoite lysates; single well.
DPAP1, sequence (Q8IIJ9 whole entry, looked up): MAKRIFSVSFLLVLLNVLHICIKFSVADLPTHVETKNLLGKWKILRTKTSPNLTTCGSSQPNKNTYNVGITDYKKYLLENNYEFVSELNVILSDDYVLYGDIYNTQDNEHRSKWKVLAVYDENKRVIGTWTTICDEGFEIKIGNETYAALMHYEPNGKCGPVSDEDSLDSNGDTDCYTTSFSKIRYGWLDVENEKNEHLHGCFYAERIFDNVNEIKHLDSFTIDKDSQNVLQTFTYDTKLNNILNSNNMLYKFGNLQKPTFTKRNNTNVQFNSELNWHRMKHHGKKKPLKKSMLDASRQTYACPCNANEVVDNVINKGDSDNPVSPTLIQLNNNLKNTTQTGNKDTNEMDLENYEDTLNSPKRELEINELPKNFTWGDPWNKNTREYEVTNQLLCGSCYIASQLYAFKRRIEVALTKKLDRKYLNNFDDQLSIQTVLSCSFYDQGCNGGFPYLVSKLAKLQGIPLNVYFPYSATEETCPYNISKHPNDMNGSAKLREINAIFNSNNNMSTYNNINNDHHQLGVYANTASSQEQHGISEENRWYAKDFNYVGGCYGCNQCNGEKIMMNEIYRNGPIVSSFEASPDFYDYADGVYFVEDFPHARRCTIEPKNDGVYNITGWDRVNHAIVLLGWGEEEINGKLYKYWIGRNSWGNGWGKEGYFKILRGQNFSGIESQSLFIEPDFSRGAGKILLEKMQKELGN
For `CC(C)(C)c1cn(-c2ccc(Cl)cc2)c(S)n1`, the “% Inhibition @ 10 uM” value was -4.01%.

Regarding `COc1ccc2c(c1)C(=O)Cc1ccccc1S2`, the “% Inhibition @ 10 uM” value was -1.91%.

With `Cc1oc(-c2ccccc2F)nc1CS(=O)CC(=O)NCCCOC(C)C` (centres unmarked), the “% Inhibition @ 10 uM” value is reported as -2.85%.

As to `CCn1ncc(Cl)c1C(=O)Nc1ccccc1C(F)(F)F`, the “% Inhibition @ 10 uM” value was found to be 5.59%.

As to `CCc1ccc(CNC(=O)Cn2nc(C)c3c(C)n(-c4ccccc4)nc3c2=O)cc1`, the “% Inhibition @ 10 uM” value is -6.53%.

Regarding `Cc1ccc2c(c1)C(O)(CC(=O)c1ccccn1)C(=O)N2` (centres unmarked), the “% Inhibition @ 10 uM” value was -6.36%.

As for `CCCCSc1ccc(NC2=NS(=O)(=O)c3ccccc32)cc1`, the “% Inhibition @ 10 uM” value is recorded as -3.39%.

`CCOc1cc2c(cc1OC)C(c1ccc3c(c1)OCO3)NCC2` (centres unmarked): the “% Inhibition @ 10 uM” value was 4.3%.

As for `O=C(NCCc1ccc(Cl)cc1)c1ccc(CS(=O)(=O)c2ccc(Br)cc2)o1`, the “% Inhibition @ 10 uM” value is -1.28%.

As for `Cc1ccc(C2C3=C(O)CC(c4ccccc4)CC3=Nc3nc(C(F)(F)F)nn32)cc1` (centres unmarked), the “% Inhibition @ 10 uM” value was -1.72%.

For `CCOc1ccc(C(=O)N2CCC(c3nc(O)c4nnn(Cc5ccc(C)cc5)c4n3)CC2)cc1`, the “% Inhibition @ 10 uM” value amounted to 14.8%.

Take `O=C(Cn1c(=O)sc2ccccc21)OCCF`: the “% Inhibition @ 10 uM” value is 5.06%.

As for `CC(=O)CN1CCn2c3c(c4cc(C)ccc42)CCCC31` (centres unmarked), the “% Inhibition @ 10 uM” value is recorded as 5.16%.

For the compound `COCCCNC(C)Cc1ccc(F)cc1` (centres unmarked), the “% Inhibition @ 10 uM” value is -3.15%.

For `COc1ccc(C2Nc3ccccc3N=C3CC(C)(C)CC(O)=C32)cc1` (centres unmarked), the “% Inhibition @ 10 uM” value is on record as 2.26%.

Consider `FC(F)(F)c1nnc2sc(Cc3ccccc3)nn12`, for which the “% Inhibition @ 10 uM” value is recorded as 2.29%.

With `CCCCNC(=O)c1noc2c1CCc1cc(OC)ccc1-2`, the “% Inhibition @ 10 uM” value is reported as -5.09%.

For the compound `CCOC(=O)C(O)(c1ccc(NC(C)C)cc1)C(F)(F)F` (centres unmarked), the “% Inhibition @ 10 uM” value is 1.57%.

For `O=C1CCCN1CCSC(=S)N1CCCC1`, the “% Inhibition @ 10 uM” value came out at 6.56%.

In the case of `CCOCCCNC(=O)Cn1c2ccccc2c2cnnc(O)c21`, the “% Inhibition @ 10 uM” value is -3.79%.

For the compound `Cc1ccc(-c2nc(O)c3ccccc3n2)cc1`, the “% Inhibition @ 10 uM” value is recorded as 2.01%.

Consider `CCc1ccc(OCC(=O)NCc2ccc3c(c2)OCO3)cc1`, for which the “% Inhibition @ 10 uM” value is -3.04%.

Regarding `Cc1ccc(NC(=O)CC2SC(Nc3ccccc3)=NC2=O)c(C)c1` (centres unmarked), the “% Inhibition @ 10 uM” value is given as 2.43%.

As for `COC(=O)C1=C(C)N=c2s/c(=C\c3ccc(C)cc3)c(=O)n2C1/C=C/c1ccccc1` (centres unmarked), the “% Inhibition @ 10 uM” value is recorded as -7.06%.

For `Cc1cc(C)nc(N2CCN(c3cc(C)c(C#N)c4nc5ccccc5n34)CC2)n1`, the “% Inhibition @ 10 uM” value is on record as -1.33%.

On to `O=C(NCc1nc(-c2ccccc2)no1)c1ccc2c(c1)OCO2`, for which the “% Inhibition @ 10 uM” value was -2.99%.

With `CCOC(=O)c1sc(C)c2c(O)nnnc12`, the “% Inhibition @ 10 uM” value was -6%.

Turning to `CC(=O)N1c2ccccc2N=C2CC(c3ccc(Cl)c(Cl)c3)CC(O)=C2C1c1cccnc1` (centres unmarked), the “% Inhibition @ 10 uM” value is given as -0.759%.

Turning to `Cc1cc(C(=O)N(C)C)sc1-c1ccccc1`, the “% Inhibition @ 10 uM” value is recorded as 0.5%.

As for `O=C(NCc1ccco1)c1ccc(COc2cccc3ccccc23)cc1`, the “% Inhibition @ 10 uM” value is recorded as -2.09%.

In the case of `CCOC(=O)C1CCN(C(=O)c2ccc(C#Cc3ccccc3)cc2)CC1`, the “% Inhibition @ 10 uM” value was -5.16%.

On to `Cc1ccccc1Cn1cccc1/C=C1/C(=N)N2C=CSC2=NC1=O`, for which the “% Inhibition @ 10 uM” value is listed as 0.275%.

Take `CCCOc1ccc(S(=O)(=O)NCc2ccc(OC)cc2)cc1`: the “% Inhibition @ 10 uM” value is reported as -1.06%.

Regarding `O=c1c2c3c(sc2nc2n1CCC2)CCCC3`, the “% Inhibition @ 10 uM” value was -0.0267%.

For the compound `COc1cccc(CNC(=O)C2CCN(c3nc4ccccc4n4cnnc34)CC2)c1`, the “% Inhibition @ 10 uM” value is 10.8%.

In the case of `O=C(Nc1ccccn1)c1c(O)nc2c(c1O)CCCC2`, the “% Inhibition @ 10 uM” value was found to be 1.2%.

Take `O=C(Cc1ccccc1Br)N(CCCN1CCOCC1)Cc1cccs1`: the “% Inhibition @ 10 uM” value is recorded as -3.12%.

`COc1cc(C2C(C#N)=C(N)OC3=C2C(=O)CCC3)ccc1OCc1ccccc1Cl` (centres unmarked): the “% Inhibition @ 10 uM” value came out at 2.36%.

Regarding `C=CCOc1ccccc1CN1CCc2c([nH]c3ccccc23)C1`, the “% Inhibition @ 10 uM” value was determined as 0.472%.

For the compound `CC1=NC(=S)C(C#N)C(c2ccccc2)=C1` (centres unmarked), the “% Inhibition @ 10 uM” value was determined as 25.7%.

Consider `Cc1nn(Cc2ccc(Cl)c(Cl)c2)c(C)c1NC(=O)c1cc(-c2ccco2)on1`, for which the “% Inhibition @ 10 uM” value was -10%.

On to `Cc1cc(-c2ccc(NC(=O)c3ccccc3C(=O)O)c(C)c2)ccc1NC(=O)c1ccccc1C(=O)O`, for which the “% Inhibition @ 10 uM” value was 3.98%.

Take `CC(C)C[C@H](NC(=O)c1ccc(-c2ccncc2)cc1)C(=O)NCC#N`: the “% Inhibition @ 10 uM” value is -4.93%.

Turning to `O=C(CNC12CC3CC(CC(C3)C1)C2)c1ccc(Br)cc1`, the “% Inhibition @ 10 uM” value is reported as -1.82%.

On to `O=C(CS(=O)(=O)Cc1ccccc1)NCCc1ccc(F)cc1`, for which the “% Inhibition @ 10 uM” value was -2.83%.

For `CC(C)(C)c1ccc(C2c3sc(O)nc3SC3C4CC(C5C(=O)N(CC(=O)O)C(=O)C45)C23)cc1` (centres unmarked), the “% Inhibition @ 10 uM” value is -5.36%.

`O=C(NC(N1CCCC1=O)(C(F)(F)F)C(F)(F)F)c1ccccc1Cl`: the “% Inhibition @ 10 uM” value is listed as -5.51%.

`Cc1ccc(C)c(NC(=O)c2csc3ccccc23)c1`: the “% Inhibition @ 10 uM” value was -4.89%.

Turning to `O=S(=O)(c1cccc(SCc2ccccc2)c1)c1cccc(SCc2ccccc2)c1`, the “% Inhibition @ 10 uM” value is on record as -3.93%.

Consider `COc1ccc(C(=O)/C=C/c2cn(CC(O)CN3CCN(C)CC3)c3ccccc23)cc1` (centres unmarked), for which the “% Inhibition @ 10 uM” value was -0.0235%.
